{
  "source": "PubChem BioAssay (NCI)",
  "note": "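Tested at 5 concentrations; 48 h exposure; 96-well plates; endpoints linearly interpolated, else capped at highest concentration. GI50 = concentration required for 50% inhibition of growth. TGI is the concentration that stops growth completely.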",
  "data": [
    {"test_system": "NCI-H322M lung", "assay": "inhibition of tumour cell growth, NCI panel, 48 h", "units": {"TGI": "µM", "GI50": "µM"}, "values": [
      {"smiles": "COC(=O)C(Cc1c[nH]c2ccccc12)NP(=O)(O)OCC1OC(n2cc(F)c(=O)[nH]c2=O)CC1O", "note": "(configuration not stated)", "TGI": "> 100"},
      {"smiles": "COc1ccc(Nc2ccnc(NCCCNc3ccnc4cc(Cl)ccc34)n2)cc1", "GI50": 1.19, "TGI": 3.71},
      {"smiles": "Cc1ccc2[nH]c(=O)c(C(C#N)c3ccccc3)nc2c1", "note": "(configuration not stated)", "TGI": "> 100"},
      {"smiles": "Cc1nc2ccc(N=NN(C)C)cc2[nH]1", "TGI": "> 100"},
      {"smiles": "O=C(/C=C/c1cccs1)c1ccc(C(=O)/C=C/c2cccs2)cc1", "TGI": "> 100"},
      {"smiles": "C[C@]12CCC(=O)C=C1CC[C@@H]1[C@@H]2CC[C@]2(C)C(=O)/C(=C/c3cccc(OCCN4CCOCC4)c3)C[C@@H]12", "GI50": 52.8, "TGI": "> 100"},
      {"smiles": "O=C1CCSc2c(cnc3ccccc23)N1", "TGI": "> 100"},
      {"smiles": "Cc1ncc([N+](=O)[O-])n1CCNC(=O)CCn1ccnc1[N+](=O)[O-]", "TGI": "> 100"},
      {"smiles": "CCOC(=O)c1c(NC(=O)c2ccc(OC)cc2)sc2c1CCCC2", "TGI": "> 100"},
      {"smiles": "CCOn1cc(C2=C(c3c[nH]c4ccccc34)C(=O)NC2=O)c2ccccc21", "GI50": 0.258, "TGI": 3.99},
      {"smiles": "CN1CCN(C(=S)N(C)C(=O)c2cccs2)CC1", "TGI": "> 100"},
      {"smiles": "CO[C@H](C(=O)N[C@@H](CCCCNC(=O)OCc1ccccc1)C(=O)OC(C)(C)C)[C@@H]1Cc2cc3cc(OC4CC(OC5CC(O)C(O)C(C)O5)C(O)C(C)O4)c(C)c(O)c3c(O)c2C(=O)[C@H]1OC1CC(OC2CC(OC3CC(C)(O)C(O)C(C)O3)C(O)C(C)O2)C(O)C(C)O1", "note": "(some centres not stated)", "GI50": 0.58, "TGI": 4.91},
      {"smiles": "COc1ccc(/C=C/[N+](=O)[O-])cc1", "TGI": 33.4},
      {"smiles": "CC(C)C(Cl)CC/C(CBr)=C(\\Cl)CCl", "note": "(configuration not stated)", "TGI": 29.4},
      {"smiles": "Cc1ccc(S(=O)(=O)n2cc(C(=O)C(=O)Nc3ccncc3)c3ccccc32)cc1", "GI50": "> 100", "TGI": "> 100"},
      {"smiles": "CC(C)N1CCCOC(c2ccc([N+](=O)[O-])cc2)O1", "note": "(configuration not stated)", "TGI": "> 100"},
      {"smiles": "C/C(=C\\c1ccn(-c2ccc(N)cc2)n1)[C@@H]1C[C@@H]2O[C@]2(C)CCC[C@H](C)[C@H](O)[C@@H](C)C(=O)C(C)(C)[C@@H](O)CC(=O)O1", "GI50": 0.0366, "TGI": "> 50"},
      {"smiles": "Cc1ccc(NC(=O)c2ccnc(N3CCCC3)c2)cc1-c1ccc(C(=O)NCC2CC2)cc1", "GI50": "> 25", "TGI": "> 25"},
      {"smiles": "CO[C@H]1CC[C@@]2(C)C(=CC[C@H]3[C@@H]4C[C@H](O)C[C@@]4(C)CC[C@@H]32)C1", "GI50": 12.1, "TGI": 26.7},
      {"smiles": "CCOC(=O)C1C(c2ccc([N+](=O)[O-])cc2)NC(c2ccc([N+](=O)[O-])cc2)C(C(=O)OC)S1(=O)=O", "note": "(configuration not stated)", "TGI": "> 100"},
      {"smiles": "C[C@H](CCC1=NCCN1)[C@H]1CC[C@H]2[C@@H]3CC[C@@H]4C[C@H](O)CC[C@]4(C)[C@H]3CC[C@]12C", "TGI": 24.2},
      {"smiles": "COc1cccc2c1c1nc3cc(C)c(C)cc3nc1n2CCN(C)C", "GI50": 1.97, "TGI": 8.27},
      {"smiles": "O=C(O)Cc1[nH]cnc1C(=O)O", "TGI": "> 100"},
      {"smiles": "CCOC(=O)C1=C(C)N(NC(=O)c2ccccc2)C2(O)CCCC12C(=O)OCC", "note": "(configuration not stated)", "TGI": "> 100"},
      {"smiles": "Cc1ccnc2nc3[nH]c4ccccc4c3cc12", "TGI": "> 100"},
      {"smiles": "COc1cc(/C=N/NC2=NCCCN2)ccc1O", "TGI": "> 100"},
      {"smiles": "COc1cc(C2S/C(=C/c3ccccc3)C(=O)N2c2ccc([N+](=O)[O-])cc2)cc(OC)c1OC", "note": "(configuration not stated)", "TGI": "> 100"},
      {"smiles": "C[C@@H]1OC2(O)[C@@H]3CCCN3C(=O)N(Cc3ccccc3)N2C1=O", "note": "(some centres not stated)", "TGI": "> 100"},
      {"smiles": "CCCCCNC1=CC(=O)c2ccccc2C1=O", "TGI": "> 100"},
      {"smiles": "COC(=O)C#Cc1ccc([N+](=O)[O-])cc1", "TGI": 11.9},
      {"smiles": "COc1cc(-c2c(C)c(C)nc(OC)c2C#N)cc(OC)c1OC", "TGI": "> 100"},
      {"smiles": "O=C(CC(=O)C(F)(F)F)c1csc2ccccc12", "TGI": "> 100"},
      {"smiles": "O=C(Nc1ccc(Br)c(Cl)c1)c1cc(F)ccc1O", "GI50": 0.817, "TGI": "> 13.7"},
      {"smiles": "CC(=O)Nc1ccc(/C=C/C(=O)c2sc(C(N)=S)nc2C)cc1", "TGI": "> 100"},
      {"smiles": "O=C(/C=C\\c1ccccc1-c1ccccc1)c1ccccc1", "TGI": "> 100"},
      {"smiles": "Nc1nc(N)c(-c2ccc(Cl)cc2)c(CCC(=O)Nc2cccc(C(F)(F)F)c2)n1", "TGI": "> 100"},
      {"smiles": "N#CC(C#N)=C1CCCCc2ccc([N+](=O)[O-])cc21", "TGI": "> 100"},
      {"smiles": "NC(=O)c1cc(C2OC(CO)C(O)C2O)nn1-c1ccc([N+](=O)[O-])cc1", "note": "(configuration not stated)", "TGI": "> 100"},
      {"smiles": "C/C(=C\\c1c[nH]c2ccccc12)[N+](=O)[O-]", "GI50": 14.2, "TGI": 27.9},
      {"smiles": "O=C1/C(=C/c2ccccc2)CCCC/C1=C\\c1ccccc1", "TGI": "> 100"},
      {"smiles": "O=C1c2ccccc2C(=O)c2c(O)c(O)cc(O)c21", "TGI": "> 100"},
      {"smiles": "CC1C2=CC=C(O2)C(C)(C)C2=CC=C(O2)C(C)(C)C2=CC=C(O2)C(C)(C)C2=CC=C1O2", "TGI": "> 100"},
      {"smiles": "Cn1c2cccc3nnc4cccc(c4c32)n1C", "TGI": "> 100"},
      {"smiles": "COC(=O)/C(C#N)=C(\\Nc1ccccc1)N1CCCCC1", "TGI": "> 100"},
      {"smiles": "O=C(/C=C\\Sc1nccc(C(F)(F)F)n1)c1ccc(Br)cc1", "GI50": "> 100", "TGI": "> 100"},
      {"smiles": "CC(=O)OCC1OC(S[As](C)C)C(OC(C)=O)C1OC(C)=O", "note": "(configuration not stated)", "GI50": 5.19, "TGI": 18.5},
      {"smiles": "COC(=O)C1=CC2OC1(C)C1(CC1)C2=O", "note": "(configuration not stated)", "TGI": "> 100"},
      {"smiles": "CN1CCN(Cc2ccc(NC(=O)c3cncc(C#Cc4c(N)ncc5cc(F)ccc45)c3)cc2C(F)(F)F)CC1", "GI50": 2.82, "TGI": 9.54}
    ]}
  ]
}
